Experimental data published in a collection of fitness landscapes (doi:10.1016/j.celrep.2020.107928).
The full ranking holds about 81,000 sequences; the median of “one-hybrid fitness for binding NBS DNA” is about -0.1, and the highest 2% start at about 0.36. The list shows a part of the results.

B1: Caulobacter ParB omega fusion; a variant is named by its letters at X, in order, B8GW30 (parent)
chain: MESVVVGEPGMSEGRRGLGRGLSALLGEVDAAPAQAPGEQLGGSREAPIEILQRNPDQPRRTFREEDLEDLSNSIREKGVLQPILVRPSPDTAGEYQIVAGERAWRAAQRAGLKTVPIMVRELDDLAVLEIGIIENVQRADLNVLEEALSYKVLMEKFERTQENIAQTIGKSXSHVANXMRLLXLPDEVQSYLVSGELTAXHARAIAAAADPVALAKQIIEGGLSVRETEALARKAPNLSAGKSKGGRPPRVKDTDTQALESDLSSVLGLDVSIDHRGSTGTLTITYATLEQLDDLCNRLTRGI

Variants of: B1
Assay: one-hybrid fitness for binding NBS DNA (the Noc-binding site; scaled: cognate 1, non-cognate 0); higher = stronger binding
Details: with NBS DNA site
Summary of the method: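 Values were rescaled so that cognate is 1 and non-cognate is 0. Each is a fitness, the log change in a variant's read ratio to wild type from Illumina reads of plasmids before and after selection, with three replicate libraries pooled and variants under 10 reads dropped. Selection of the Caulobacter ParB libraries, four specificity codons randomised, used E. coli USO with a HIS3 reporter, site 19 bp from the promoter, on M9-minus-histidine with 0.1 mM IPTG and 5 mM 3-AT for 48 hours at 37°C.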

one-hybrid fitness for binding NBS DNA, 0.294:
QRTF

one-hybrid fitness for binding NBS DNA, 0.497:
RYNS

one-hybrid fitness for binding NBS DNA, ≤ 0.2:
QVSK
WIFS
EVCS
TLPY
HYKK
DIII
RLDP
SIMP
PPFL
QETG
QTLM
THYT
KLPA
QKSE
SCKE
YTNG
SNRT
MPQI
SCNS
MMLC
ITQT
QLRP
WIQC
FKQR
QAEK
LTMR
TIMG
NRTR
CGET
SSYY
LYYR
FFQR
HMGC
CSAE
DNSD
HPAI
RAMK
GPIF
NKDH
PLAN
ERHN
FDHS
SHTN
RPVP
RKYI
KYRQ
MEKS
RKAW
GGTG
ICRD
KQLG
FQLR
HAQC
VTRS
PWAI
MLMT
HHKT
RWII
NDKS
HGTT
RADN
WILE
ISLY
CRKI
TECF
CSGP
FNST
TLRC
MTQG
LDFT
GYNM
NKDG
PSTA
EVSE
PVES
PNPR
NFLR
IIKS
NTEG
ITDR
WTML
GRKK
SLWA
KRIN
GDRK
QIGC
VAKG
CPIG
TNNV
GHRS
MKLG
FTEG
WRTC
YGGF
ENYR
MSDG
CAAS
AALW
PSCT
LTSF
TCDE
DQRD
RCSV
FING
NRNA
VKNW
RHWQ
PFFL
PAGM
DAHS
NFCG
KPSC
RWKI
CAGM
MIRS
PIKY
MPFI
YDST
REVP
TWAC
QLHE
DILM
KTFK
PIGH
EAGC
SARY
ECHT
TLVI
SFLL
APHP
GMVQ
PRSS
EYCS
GDHR
FDEV
IQLA
LLWR
ISDV
AQYW
LIKM
SKSW
PEMS
VNIT
TLSH
FVEL
HKKI

one-hybrid fitness for binding NBS DNA, 0.47:
RSHS

one-hybrid fitness for binding NBS DNA, 0.426:
QVGR

one-hybrid fitness for binding NBS DNA, 0.202:
QWPR

one-hybrid fitness for binding NBS DNA, 0.436:
RQTS

one-hybrid fitness for binding NBS DNA, 0.281:
RCIS
